{"source": "PubChem BioAssay AID1477", "about": "(National Center for Advancing Translational Sciences (NCATS), 2009)", "note": "In all, about 230,000 compounds went through this assay and fewer than 10 were called active. Inconclusive means that the source gave no clear call. Such entries were picked first, then a sample of the others. The call rests on the fitted dose curve; in most records, active means well fitted curve in the direction sought with a large enough effect; inconclusive means small, poorly fitted or top-dose-only effect, or effect the other way, or another doubt; inactive means no such curve, though single readings can be large or run the other way. Potencies of inconclusive entries are left out as doubtful fits. Square brackets hold non-standard residues; d marks the D form. Peptide text beside a SMILES is read from it. Sar = CNCC(=O)O", "data": [{"molecular_target": "Runt-related transcription factor 1 (Homo sapiens) + Core-binding factor subunit beta (Homo sapiens) (UniProt Q01196+Q13951)", "sequence (Q01196 whole entry, looked up)": "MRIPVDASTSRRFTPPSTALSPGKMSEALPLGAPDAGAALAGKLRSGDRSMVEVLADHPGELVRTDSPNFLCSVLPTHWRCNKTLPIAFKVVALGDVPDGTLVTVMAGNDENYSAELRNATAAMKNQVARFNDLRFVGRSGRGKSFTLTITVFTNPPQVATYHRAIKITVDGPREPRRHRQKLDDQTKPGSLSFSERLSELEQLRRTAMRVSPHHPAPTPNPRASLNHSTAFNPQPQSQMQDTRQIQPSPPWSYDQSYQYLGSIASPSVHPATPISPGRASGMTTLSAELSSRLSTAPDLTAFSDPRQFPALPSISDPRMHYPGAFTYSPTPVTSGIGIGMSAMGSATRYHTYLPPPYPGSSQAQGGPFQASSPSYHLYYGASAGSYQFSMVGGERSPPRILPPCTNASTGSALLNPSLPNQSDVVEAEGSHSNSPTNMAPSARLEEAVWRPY", "sequence (Q13951 whole entry, looked up)": "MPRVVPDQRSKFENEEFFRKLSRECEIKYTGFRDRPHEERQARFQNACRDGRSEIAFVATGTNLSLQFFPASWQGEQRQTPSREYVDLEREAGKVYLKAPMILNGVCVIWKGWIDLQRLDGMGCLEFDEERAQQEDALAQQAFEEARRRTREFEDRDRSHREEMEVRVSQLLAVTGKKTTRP", "experiment": "qHTS Assay for Compounds Blocking the Interaction Between CBF-beta and RUNX1 for the Treatment of Acute Myeloid Leukemia; on activity, negative = inhibition: % of control where 0% means no effect", "settings": "AlphaScreen CBFb-His/RUNX1-biotin binding, biochemical; activity, negative = inhibition: at 59.8 µM (top of the series) unless noted", "in_short": "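Read-out: AlphaScreen. Format: His-CBF-beta with biotinylated RUNX1 (30 nM each) preincubated 20 min, compound 15 min, Ni-chelate plus streptavidin beads 90 min; room temperature throughout.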", "values": [{"molecule": "COc1ccc(C(=O)C2CCCN(Cc3ccc4nonc4c3)C2)c(OC)c1", "note": "(stereo not given)", "Potency": "inactive"}, {"molecule": "N#CCSc1nc2c(c(C3CC=CCC3)c1C#N)CCC2", "note": "(stereo not given)", "Potency": "inconclusive [activator, partial curve]"}, {"molecule": "Cc1cccc2nc(CSc3nc4ccc([N+](=O)[O-])cc4[nH]3)c(Br)n12", "Potency": "inactive"}, {"molecule": "COc1ccccc1OCCOCCOc1c(C)cc(C)cc1Br", "Potency": "inconclusive [activator, single point]"}, {"molecule": "O=C(CSc1nnc(SCc2ccccc2)s1)N/N=C/c1c[nH]c2ccccc12", "Potency": "inconclusive [inhibitor, single point]"}, {"molecule": "Nc1ccc2nc(-c3ccc(N)c(Cl)c3)[nH]c2c1", "Potency": "inconclusive [activator, partial curve]"}, {"molecule": "COC(=O)Cn1c(C)nc([N+](=O)[O-])c1Br", "Potency": "inconclusive [activator, single point]"}, {"molecule": "COc1cccc(C(=O)COc2ccc3c(C)c(Cc4ccccc4)c(=O)oc3c2)c1", "Potency": "inactive"}, {"molecule": "CCOc1ccc2nc(NC3=NC(c4ccc(OC)cc4)CC(=O)N3)nc(C)c2c1", "note": "(stereo not given)", "Potency": "inconclusive [activator, single point]"}, {"molecule": "COc1ccc(-n2c(SCC(N)=O)nc3sc4c(c3c2=O)CCN(C)C4)cc1", "Potency": "inconclusive [inhibitor, single point]"}, {"molecule": "Cn1c(=O)c2c(nc(NCc3ccco3)n2CCc2ccccc2)n(C)c1=O", "Potency": "inactive"}, {"molecule": "CCOC(=O)CSc1nc2cc(C)cc(C)c2cc1C#N", "Potency": "inconclusive [activator, partial curve]"}, {"molecule": "FC(F)(F)c1cc(N2CCN(Cc3ccccc3)CC2)c2ccccc2n1", "Potency": "inconclusive [activator, full curve, poor fit]"}, {"molecule": "Cc1ccc(NCCC(=O)c2cccc([N+](=O)[O-])c2)c(C)c1", "Potency": "inconclusive [inhibitor, single point]"}, {"molecule": "O=C1CCCC(O)=C1N=Nc1ccc(C(=O)O)cc1", "Potency": "inconclusive [inhibitor, partial curve]"}, {"molecule": "CC(C)=CCC[C@](C)(O)C1CC[C@]2(C)[C@@H]1CC[C@@H]1[C@@]3(C)CCC(=O)C(C)(C)[C@@H]3CC[C@]12C", "note": "(stereo not given in full)", "Potency": "inactive"}, {"molecule": "CC(C)(C)c1cc(/C=C(\\C#N)C(N)=S)cc(C(C)(C)C)c1O", "Potency": "inconclusive [inhibitor, single point]"}, {"molecule": "COCC(=O)n1nc(-c2ccccc2)nc1NCc1ccc(N(C)C)cc1", "Potency": "inactive"}, {"molecule": "COc1ccc(/C=N/NC(=O)c2nn(-c3ccc(Cl)cc3)c(=O)c3c(N)scc23)cc1", "Potency": "inconclusive [inhibitor, single point]"}, {"molecule": "C[N+]12CCC(CC1)C(C(O)(c1ccccc1)c1cccs1)C2", "note": "(stereo not given)", "Potency": "inactive"}, {"molecule": "COc1ccccc1Nc1nc(Cl)c(C=O)s1", "Potency": "inactive"}, {"molecule": "O=S1OCC2C(CO1)C1(Cl)C(Cl)=C(Cl)C2(Cl)C1(Cl)Cl", "note": "(stereo not given)", "Potency": "inconclusive [activator, partial curve]"}, {"molecule": "CC(C)C(C(=O)Nc1cccnc1)N1C(=O)c2ccccc2C1=O", "note": "(stereo not given)", "Potency": "inconclusive [inhibitor, single point]"}, {"molecule": "COC(=O)c1c(C(=O)OC)c2cccc3cc(-c4ccccc4)c4ccc1c4n32", "Potency": "inconclusive [inhibitor, partial curve]"}, {"molecule": "c1ccc(Nc2ccc(Nc3ccccc3)cc2)cc1", "Potency": "inconclusive [inhibitor, partial curve]"}, {"molecule": "O=C(Nc1ccc([N+](=O)[O-])cc1)Nc1ccc2[nH]c(=O)[nH]c2c1", "Potency": "inconclusive [activator, single point]"}, {"molecule": "CCOP(=O)(OCC)c1nc(-c2cccc3ccccc23)oc1NCc1ccc(OC)cc1", "Potency": "inconclusive [activator, single point]"}, {"molecule": "Cc1cc(C)cc(OCC(=O)N(Cc2ccc(N(C)C)cc2)C2CCS(=O)(=O)C2)c1", "note": "(stereo not given)", "Potency": "inconclusive [inhibitor, single point]"}, {"molecule": "CCOC(=O)c1c(C)cccc1OCC(N)=O", "Potency": "inactive"}, {"molecule": "N#Cc1ccc(C(=O)Nc2nnc(-c3ccco3)o2)cc1", "Potency": "inconclusive [inhibitor, partial curve, poor fit]"}, {"molecule": "O=C(O)c1cccc(S(=O)(=O)Nc2ccc3[nH]c(=O)[nH]c3c2)c1", "Potency": "inconclusive [activator, partial curve]"}, {"molecule": "Clc1ccccc1Cn1nc(-c2ccccc2)nc1-c1ccccc1", "Potency": "inconclusive [activator, single point]"}, {"molecule": "CC1CCCN(S(=O)(=O)c2ccc(C(=O)Nc3nnc(-c4ccccn4)o3)cc2)C1", "note": "(stereo not given)", "Potency": "inconclusive [inhibitor, partial curve]"}, {"molecule": "FCCCOc1ccc(/C=N/OCc2ccc(Cl)cc2)cc1", "Potency": "inconclusive [activator, single point]"}, {"molecule": "CCc1cccc2nc3c(c([Si](CC)(CC)CC)c12)Cn1c-3cccc1=O", "Potency": "inconclusive [activator, partial curve]"}, {"molecule": "COc1c(C)cc(C(=O)C2CCCN(Cc3ccccn3)C2)cc1C", "note": "(stereo not given)", "Potency": "inactive"}, {"molecule": "COc1ccc(OC)c(C2C(C(=O)Nc3nc4ccccc4s3)=C(C)NC3=C2C(=O)CCC3)c1", "note": "(stereo not given)", "Potency": "inconclusive [activator, partial curve]"}, {"molecule": "CCOc1ccc(CN2CCN(Cc3cnc(-c4ccccc4)s3)CC2CCO)cc1", "note": "(stereo not given)", "Potency": "inactive"}, {"molecule": "CCn1c2ccc(F)cc2c2nc3ccccc3nc21", "Potency": "inconclusive [activator, partial curve]"}, {"molecule": "COc1c(O)c(O)cc2c1oc1c3cc(C)ccc3oc(=O)c21", "Potency": "inconclusive [inhibitor, partial curve]"}, {"molecule": "CCCCC#CC1C=CC(Oc2cc(OC)c(OC)c(OC)c2)C(COC(=O)OCC)O1", "note": "(stereo not given)", "activity, negative = inhibition": "inactive: 15.7% [at 13.1 µM]"}, {"molecule": "Cc1nn(C)c(C(=O)N2CCN(C(=O)c3ccco3)CC2)c1Br", "Potency": "inconclusive [activator, partial curve]"}, {"molecule": "Cc1ccc(-c2nc(-c3ccccn3)no2)cc1[N+](=O)[O-]", "Potency": "inactive"}, {"molecule": "C(=N\\Nc1nc2ccccc2[nH]1)/c1cccc2cccnc12", "Potency": "inconclusive [inhibitor, partial curve]"}, {"molecule": "COCCNc1nc(-c2ccc(OC)cc2)c(-c2ccc(OC)cc2)s1", "Potency": "inconclusive [inhibitor, single point]"}, {"molecule": "COc1cccc(CN(C)c2nc(-c3cccs3)nc3ccccc23)c1", "Potency": "inconclusive [activator, single point]"}, {"molecule": "O=C(N/N=C/c1cccc2cccnc12)[C@H]1C[C@@H]1c1ccccc1", "Potency": "inconclusive [inhibitor, single point]"}, {"molecule": "CN(CC(=O)O)C(=O)[C@H](Cc1ccccc1)NC(=O)[C@@H](CCCN=C(N)N)NC(=O)[C@@H](N)Cc1ccc(O)cc1", "note": "(H-Y[dR]F[Sar]-OH)", "Potency": "inconclusive [inhibitor, single point]"}, {"molecule": "Brc1ccccc1C1=Nn2c(nnc2-c2ccco2)SC1", "Potency": "inactive"}, {"molecule": "CCc1ccc(NSc2ccccc2[N+](=O)[O-])cc1", "Potency": "inconclusive [inhibitor, single point]"}, {"molecule": "COc1ccccc1-n1nnnc1SCc1ccccc1", "Potency": "inactive"}, {"molecule": "N#Cc1ccccc1Sc1ccccc1C(=O)OCc1nnc(-c2ccccc2)o1", "Potency": "inactive"}, {"molecule": "CCOc1ccc(C(=O)NC(=S)Nc2ccc(N3CCCCC3)cc2)cc1[N+](=O)[O-]", "Potency": "inconclusive [inhibitor, single point]"}, {"molecule": "O=C(/C=C/c1ccc(Cl)cc1)N1CCN(c2c(Cl)cccc2[N+](=O)[O-])CC1", "Potency": "inconclusive [inhibitor, partial curve]"}, {"molecule": "Cc1ccc(OCn2c(=O)sc3ccccc32)cc1", "Potency": "inconclusive [activator, single point]"}, {"molecule": "CCN(CC)CCC(c1ccc(N(C)C)cc1)c1c(OC)cc(OC)c2c(-c3ccccc3)cc(=O)oc12", "note": "(stereo not given)", "Potency": "inconclusive [inhibitor, partial curve]"}, {"molecule": "O=C(O)C1=C[C@H](c2cccs2)C[C@H](OCc2ccc(CO)cc2)O1", "Potency": "inactive"}, {"molecule": "CN1C[C@@H]2C(c3ccc(C(F)(F)F)cc3)C3(c4ccc(C#N)cc4)CC2(C3)[C@H]1c1ccccc1", "note": "(stereo not given in full)", "Potency": "inconclusive [inhibitor, single point]"}, {"molecule": "COc1cnc(SCc2ccc(Cl)c(Cl)c2)nc1Cl", "Potency": "inconclusive [activator, single point]"}, {"molecule": "C/C(=N\\NC(=S)NCc1ccccc1)c1ccco1", "Potency": "inactive"}, {"molecule": "Cc1ccccc1Nc1nc(N)nc(CN2C(=O)NC3(CCCCC3C)C2=O)n1", "note": "(stereo not given)", "Potency": "inactive"}, {"molecule": "Cc1ccccc1NC(=S)NCCc1c[nH]c2ccccc12", "Potency": "inactive"}, {"molecule": "CC(C)C(=O)NC(Nc1cc(C(F)(F)F)ccc1Cl)C(Cl)(Cl)Cl", "note": "(stereo not given)", "Potency": "inactive"}, {"molecule": "CCOC(=O)C1(CCCc2ccccc2)CCN(C(=O)c2cncs2)CC1", "Potency": "inactive"}, {"molecule": "N#Cc1nc(COc2ccc(F)cc2)oc1N1CCN(Cc2ccccc2)CC1", "Potency": "inconclusive [inhibitor, partial curve]"}, {"molecule": "COC(C[C@H](O)C[C@@H](O)COCc1ccccc1)OC", "Potency": "inactive"}, {"molecule": "O=C(COC(=O)CCN1C(=O)/C(=C\\C=C\\c2ccccc2)SC1=S)Nc1cc(F)ccc1F", "Potency": "inconclusive [inhibitor, partial curve]"}, {"molecule": "Cc1nnc(SCC(=O)Nc2sc3c(c2C#N)CCCC3)[nH]c1=O", "Potency": "inactive"}, {"molecule": "COc1ccc(C2Nc3cc(OC)ccc3-n3cccc32)cc1", "note": "(stereo not given)", "Potency": "inconclusive [activator, partial curve]"}, {"molecule": "Cc1c([N+](=O)[O-])cc(C(=O)Nc2ccc(Cc3ccncc3)cc2)cc1[N+](=O)[O-]", "Potency": "inconclusive [inhibitor, single point]"}]}]}
